# The whole screen tested about 280,000 compounds, of which about 820 (0.29%) were called active. This list was built around the results that the source calls inconclusive (neither active nor inactive); the mix of calls is not that of the screen. Calls follow the shape of the dose curve; as a rule, active = well fitted curve in either direction with a large enough effect; inconclusive = small, poorly fitted or top-dose-only effect; inactive = flat fitted curve, though single readings scatter. No potency is given beside an inconclusive call; the fits are too rough.
# Experiment: Total Fluorescence Counterscreen for Inhibitors of the Interaction of Thyroid Hormone Receptor and Steroid Receptor Coregulator 2
# Conditions: TRb/SRC2 Texas Red total fluorescence interference; series mostly up to 106 µM
# Summary of the method: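 Flags fluorescent or light-absorbing compounds by total fluorescence, S + 2P, at 555 nm excitation and 632 nm emission. Mixture: 20 nM Texas Red SRC2 peptide, 0.6 uM human TRb LBD, 1 uM T3, 5% DMSO; compound exposure 5 h at ambient temperature.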
# Potency is read from the fitted curve at half-maximal effect; tags tell the direction and shape of the fitted curve or compound fluorescence and quenching.
row,Compound,Potency
1,Cc1ccc(NC(=O)CS(=O)CC(=O)Nc2ccc(N3CCOCC3)cc2)cc1Cl (stereo unspecified),"inconclusive [quencher, partial curve]"
2,N#C/C(=C/c1ccco1)C(N)=S,"inconclusive [quencher, partial curve]"
3,COC(=O)c1cc2occc2n1Cc1cccc(C)c1,"inconclusive [falling, full curve, poor fit]"
4,Cc1ccc(C(=O)Nc2onc3c2CCCC3)cc1,"inconclusive [quencher, full curve]"
5,CSc1ccc(CNC(=O)CCn2c(=O)c3cccn3c3ccc(F)cc32)cc1,"inconclusive [quencher, partial curve]"
6,O=C1CCCC/C1=C\Nc1ccc(O)cc1,"inconclusive [rising, partial curve, poor fit]"
7,O=C(Nc1ccccc1)/C(=C\c1cccs1)NC(=O)c1ccccc1,active: 0.0282 µM [quencher]
8,Cc1cc(C(=O)CSc2nnc(-c3ccco3)o2)c(C)n1CC1COc2ccccc2O1 (stereo unspecified),"inconclusive [quencher, partial curve]"
9,COc1ccc(-c2oc3ncn4nc(-c5ccccc5C)nc4c3c2-c2ccc(OC)cc2)cc1,"inconclusive [falling, partial curve, poor fit]"
10,Cc1ccc(NC(=S)Nc2ccc(C(C)C)cc2)cc1S(=O)(=O)N1CCCCCC1,inactive
11,COc1ccc(C)cc1NS(=O)(=O)c1ccc2[nH]c(=O)c(=O)[nH]c2c1,"inconclusive [falling, full curve, poor fit]"
12,O=S(=O)(Nc1ccc(-c2ccc(N3CCCC3)nn2)cc1)c1cccc(C(F)(F)F)c1,active: 708 µM [quencher]
13,CCCCC(=Nc1ccc(N)cc1)C1=C(O)C(C(=O)OC)C(C)(C)CC1=O (stereo unspecified),"inconclusive [fluorescent, partial curve]"
14,COc1ccc(C2/C=C\CN(Cc3ccccc3)C(C)C(=O)N2Cc2ccc(F)cc2)cc1 (stereo unspecified),inactive
15,CCOc1cc(C(c2c(C)[nH][nH]c2=O)c2c(C)[nH][nH]c2=O)ccc1OCc1ccc([N+](=O)[O-])cc1,inactive
16,COc1cc(NC(=O)CN2C(=O)CN(C)C(=O)c3ccccc32)cc(OC)c1OC,"inconclusive [quencher, partial curve]"
17,COc1ccc(OC)c(NS(=O)(=O)c2ccc3[nH]c4c(c3c2)CCCCC4)c1,inactive
18,CCCCCCCCS(=O)C1CS(=O)(=O)CC1O (stereo unspecified),active: 10 µM [fluorescent]
19,NC(=O)c1cc(-c2ccccc2)sc1NC(=O)Cc1ccc(S(=O)(=O)N2CCOCC2)s1,inactive
20,CNC(CC(=O)c1ccc([N+](=O)[O-])cc1)C(Cl)(Cl)Cl (stereo unspecified),inactive
21,Cc1ccccc1C(=O)Nc1ccc2c(C#N)c3nc4ccccc4nc3n2c1,"inconclusive [fluorescent, partial curve]"
22,O=C(NCc1ccc(Cl)cc1)c1ccc(Br)o1,"inconclusive [falling, full curve, poor fit]"

row,Compound,Potency
1,CC(=O)Oc1oc(-c2ccccc2)nc1C=Nc1ccc(N(C)C)cc1,inactive
2,Cc1ccc2oc(=O)n(CCCOc3ccc(Cl)cc3)c2c1,"inconclusive [falling, partial curve, poor fit]"
3,O=C(NCc1ccccn1)c1ccc2nc(-c3ccco3)c(-c3ccco3)nc2c1,"inconclusive [quencher, partial curve]"
4,O=C(N/N=C/c1cc([N+](=O)[O-])ccc1O)c1cc(-c2ccccc2)nc2ccccc12,"inconclusive [falling, full curve, poor fit]"
5,COc1ccc(S(=O)(=O)N[C@@H](Cc2ccccc2)C(=O)N2CC[C@@]3(O)CCCC[C@H]3C2)cc1,inactive
6,CC1CCc2cc(F)ccc2N1S(=O)(=O)c1ccc(Cl)nc1 (stereo unspecified),"inconclusive [quencher, full curve]"
7,O=C(c1ccco1)[C@@H]1[C@@H]2C(=O)N(c3ccc(Br)cc3)C(=O)[C@@H]2C2c3ccccc3C=CN21 (stereo partly specified),inactive
8,COc1cc(Cn2c(=O)sc3ccccc32)ccc1OC(C)C,"inconclusive [falling, full curve, poor fit]"
9,N#Cc1c(NC(=O)c2ccccc2)sc2c1CCCCC2,"inconclusive [rising, single point]"
10,O=C(NNc1cc(N2CCOCC2)nc(N2CCOCC2)n1)c1ccc(Cl)cc1Cl,"inconclusive [falling, full curve, poor fit]"
11,COc1cc(OC)c(NC(=O)NC(C)c2c(-n3cccc3)sc(C)c2C)cc1Cl (stereo unspecified),"inconclusive [falling, full curve, poor fit]"
12,Cc1ccc2cccc(NC(=O)c3ccc(-c4cccc([N+](=O)[O-])c4)o3)c2n1,"inconclusive [quencher, full curve]"
13,Cc1ccccc1NC(NC(=O)OCCn1c([N+](=O)[O-])cnc1C)C(Cl)(Cl)Cl (stereo unspecified),active: 7.08 µM [quencher]
14,CCN(CC)S(=O)(=O)c1ccc(-c2nnc(SCC(=O)Nc3nc(C)cs3)o2)cc1,inactive
15,O=C(COc1ccc(S(=O)(=O)NC2CCCCC2)cc1)Nc1ccc(C(F)(F)F)cc1,inactive
16,C=CCN1C(=O)CS/C1=C(\C#N)S(=O)(=O)c1ccc(C)cc1,active: 39.8 µM [fluorescent]
17,CC(Sc1ccc(Cl)cc1)C(=O)Nc1ccccc1-c1ccccc1 (stereo unspecified),active: 25.1 µM [quencher]
18,O=C(Cc1cccc([N+](=O)[O-])c1)NCc1nc2cccnc2n1Cc1ccc(F)cc1,"inconclusive [quencher, partial curve]"
19,O=C(CC1C(=O)OCCN1Cc1ccccc1)Nc1cccc(C(F)(F)F)c1 (stereo unspecified),"inconclusive [quencher, full curve]"
20,CC(=O)c1cc(C(=O)Nc2cc(C)cc(C)c2)c2ccccn12,"inconclusive [falling, full curve, poor fit]"
21,O=c1c(C/C=C/c2ccccc2)c(O)ccn1Cc1cccc(Cl)c1,inactive
22,CCCC(=Nc1ccc(N)cc1)C1=C(O)C(C(=O)OC)C(C)(C)CC1=O (stereo unspecified),active: 44.7 µM [fluorescent]

row,Compound,Potency
1,COc1cc2ccccc2cc1C(=O)Nc1ccc(Cl)c(-c2nc3ccccc3o2)c1,"inconclusive [falling, partial curve, poor fit]"
2,CC1=C(c2ccc(C)cc2)S(=O)(=O)N(Cc2ccc(C(=O)Nc3ccc(F)cc3C)cc2)C1=O,"inconclusive [falling, partial curve, poor fit]"
3,COc1ccc(/C=C/c2noc(-c3ccccc3O)n2)cc1OC,inconclusive
4,O=S(=O)([O-])CCC[n+]1c(/C=C\Nc2ccccc2)oc2ccc(-c3ccccc3)cc21,"inconclusive [rising, single point]"
5,Cc1ccc(NC(=O)C(=O)NCC(c2cccnc2)N2CCc3ccccc32)cc1Cl (stereo unspecified),"inconclusive [falling, partial curve, poor fit]"
6,Cc1cnc(C(=O)Nc2ccc(C)c(S(=O)(=O)N(C)C)c2)cn1,active: 35.5 µM [quencher]
7,O=[N+]([O-])c1cc(/C=N\Nc2nccs2)ccc1O,active: 25.1 µM [quencher]
8,CCc1ccc(NC(=O)N2CC(C)Oc3ccc(C)cc32)cc1 (stereo unspecified),"inconclusive [falling, full curve, poor fit]"
9,Cc1ccc2oc3c(c(=O)c2c1)C(c1ccc(F)cc1)N(c1nc(C)c(C)s1)C3=O (stereo unspecified),"inconclusive [falling, full curve, poor fit]"
10,COc1ccc(NC(=O)c2nc3nc(C)cc(C(F)F)n3n2)c(C)c1,"inconclusive [falling, partial curve, poor fit]"
11,C/C(=N\NC(N)=S)C1(C)CCCCC1,inactive
12,COc1ccc(NC(=O)COCc2cc(-c3cccs3)on2)cc1,"inconclusive [falling, partial curve, poor fit]"
13,CC(=O)N1CCc2c(sc3c2c(=O)n(-c2ccccc2C)c(=O)n3Cc2cccc(F)c2)C1,"inconclusive [quencher, full curve]"
14,O=C(O)c1cc(-c2ccc(/C=N/N3C(=O)C4C5C=CC(C6CC56)C4C3=O)o2)ccc1Cl (stereo unspecified),inactive
15,COc1cc(C)c(NC(=S)Nc2ccc(Cl)c(Cl)c2)cc1OC,"inconclusive [falling, partial curve, poor fit]"
16,O=C(O)CCC(=O)N1CCc2cc(S(=O)(=O)N3CC=C(c4ccccc4)CC3)ccc21,inactive
17,COc1cc(Cl)c(C)cc1NC(=O)CSc1ncc(S(=O)(=O)c2ccc(C(C)(C)C)cc2)c(=O)[nH]1,"inconclusive [falling, partial curve, poor fit]"
18,CC1=CN2C(=N)/C(=C/c3ccc([N+](=O)[O-])o3)C(=O)N=C2S1,active: 44.7 µM [fluorescent]
19,N#C/C(=C\c1ccc(Cl)cc1)c1nc2ccccc2[nH]1,"inconclusive [falling, partial curve, poor fit]"
20,Cc1cc(C)cc(OC(=O)c2snnc2C)c1,"inconclusive [falling, full curve, poor fit]"
21,CC(C)n1c(=S)[nH]c2scc(-c3cccs3)c2c1=O,"inconclusive [quencher, partial curve]"
22,COc1ccc(NC(=S)Nc2ccc3snnc3c2)cc1,inactive

# Source: PubChem BioAssay AID1479 (National Center for Advancing Translational Sciences (NCATS), 2009)
